# The other results are listed elsewhere or left out.
# B1: Als3-N (Candida albicans) (protein)
# chain: KTITGVFNSFNSLTWSNAATYNYKGPGTPTWNAVLGWSLDGTSASPGDTFTLNMPCVFKFTTSQTSVDLTAHGVKYATCQFQAGEEFMTFSTLTCTVSNTLTPSIKALGTVTLPLAFNVGGTGSSVDLEDSKCFTAGTNTVTFNDGGKKISINVDFERSNVDPKGYLTDSRVIPSLNKVSTLFVAPQCANGYTSGTMGFANTYGDVQIDCSNIHVGITKGLNDWNYPVSSESFSYTKTCSSNGIFITYKNVPAGYRPFVDAYISATDVNSYTLSYANEYTCAGGYWQRAPFTLRWTGYRNSDAGSNGIVIVATTRTVTDSTTAVTTLPFDPNRDKTKTIEILKPIPTTTITTSYVGVTTSYLTKTAPIGETATVIVDIPYHTTTTVTSKWTGTITSTTTHTNPTDSIDTVIVQVP
# Key:
# Assay in all cases: glycan array binding signal (z-score within array); higher = stronger binding
# Conditions in all cases: glycan notation: IUPAC condensed, linker removed
# Neu5Ac(a2-8)Neu5Ac = target: Neu5Ac(a2-8)Neu5Ac
# How it was run: (§1)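 The Consortium for Functional Glycomics database supplied 3228 glycan arrays, of which those lacking an available protein sequence were dropped. The binding signal, a within-array Z-score, was averaged across arrays of the same protein sequence and across linkers. Negative scores can be read as non-binding.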
# [1] = target: Neu5Ac(a2-8)Neu5Ac(a2-3)Gal(b1-3)GalNAc(b1-4)[Neu5Ac(a2-3)]Gal(b1-4)Glc
# How it was run: as §1
# [2] = target: Neu5Ac(a2-8)Neu5Ac(a2-3)Gal(b1-3)GalNAc(b1-4)[Neu5Ac(a2-8)Neu5Ac(a2-3)]Gal(b1-4)Glc
# How it was run: as §1
# [3] = target: Neu5Ac(a2-8)Neu5Ac(a2-3)Gal(b1-4)Glc
# How it was run: as §1
# [4] = target: Neu5Ac(a2-8)Neu5Ac(a2-3)Gal(b1-4)GlcNAc
# How it was run: as §1
# [5] = target: Neu5Ac(a2-8)Neu5Ac(a2-3)[Gal(b1-3)GalNAc(b1-4)]Gal(b1-4)Glc
# How it was run: as §1
# [6] = target: Neu5Ac(a2-8)Neu5Ac(a2-3)[GalNAc(b1-4)]Gal(b1-4)Glc
# How it was run: as §1
# [7] = target: Neu5Ac(a2-8)Neu5Ac(a2-8)Neu5Ac
# How it was run: as §1
# [8] = target: Neu5Ac(a2-8)Neu5Ac(a2-8)Neu5Ac(a2-3)Gal(b1-4)Glc
# How it was run: as §1
# [9] = target: Neu5Ac(a2-8)Neu5Ac(a2-8)Neu5Ac(a2-3)[Gal(b1-3)GalNAc(b1-4)]Gal(b1-4)Glc
# How it was run: as §1
# [10] = target: Neu5Ac(a2-8)Neu5Ac(a2-8)Neu5Ac(a2-3)[GalNAc(b1-4)]Gal(b1-4)Glc
# How it was run: as §1
# [11] = target: Neu5Ac(a2-8)Neu5Ac(a2-8)Neu5Ac(a2-8)Neu5Ac(a2-3)[GalNAc(b1-4)]Gal(b1-4)Glc
# How it was run: as §1
# [12] = target: Neu5Ac(a2-8)Neu5Gc(a2-3)Gal(b1-4)GlcNAc
# How it was run: as §1
# [13] = target: Neu5Ac(b2-6)Gal(b1-4)GlcNAc
# How it was run: as §1
# Neu5Ac(b2-6)GalNAc = target: Neu5Ac(b2-6)GalNAc
# How it was run: as §1
# [14] = target: Neu5Ac9Ac(a2-3)Gal(b1-3)GlcNAc
# How it was run: as §1
# [15] = target: Neu5Ac9Ac(a2-3)Gal(b1-4)GlcNAc
# How it was run: as §1
# [16] = target: Neu5Ac9Ac(a2-6)Gal(b1-4)GlcNAc
# How it was run: as §1
# [17] = target: Neu5Gc(a2-3)Gal(b1-3)GlcNAc
# How it was run: as §1
# [18] = target: Neu5Gc(a2-3)Gal(b1-3)[Fuc(a1-4)]GlcNAc
# How it was run: as §1
# Neu5Gc(a2-3)Gal(b1-4)Glc = target: Neu5Gc(a2-3)Gal(b1-4)Glc
# How it was run: as §1
# [19] = target: Neu5Gc(a2-3)Gal(b1-4)GlcNAc
# How it was run: as §1
# [20] = target: Neu5Gc(a2-3)Gal(b1-4)GlcNAc(b1-3)Gal(b1-4)GlcNAc(b1-2)Man(a1-3)[Neu5Gc(a2-3)Gal(b1-4)GlcNAc(b1-3)Gal(b1-4)GlcNAc(b1-2)Man(a1-6)]Man(b1-4)GlcNAc(b1-4)GlcNAc
# How it was run: as §1
# [21] = target: Neu5Gc(a2-3)Gal(b1-4)[Fuc(a1-3)]GlcNAc
# How it was run: as §1
# [22] = target: Neu5Gc(a2-6)Gal(b1-4)GlcNAc
# How it was run: as §1
# Neu5Gc(a2-6)GalNAc = target: Neu5Gc(a2-6)GalNAc
# How it was run: as §1
# [23] = target: Neu5Gc(a2-8)Neu5Ac(a2-3)Gal(b1-4)GlcNAc
# How it was run: as §1
# [24] = target: Neu5Gc(a2-8)Neu5Gc(a2-3)Gal(b1-4)GlcNAc
# How it was run: as §1
# [25] = target: Neu5Gc(a2-8)Neu5Gc(a2-3)Gal(b1-4)GlcNAc(b1-3)Gal(b1-4)GlcNAc
# How it was run: as §1
# [26] = target: Neu5Gc(a2-8)Neu5Gc(a2-6)Gal(b1-4)GlcNAc
# How it was run: as §1
# [27] = target: Neu5Gc(b2-6)Gal(b1-4)GlcNAc
# How it was run: as §1
binder,measurement,setting,value
B1,glycan array binding signal (z-score),Neu5Ac(a2-8)Neu5Ac,-0.221
same,glycan array binding signal (z-score),[1],-0.115
same,glycan array binding signal (z-score),[2],-0.226
same,glycan array binding signal (z-score),[3],-0.344
same,glycan array binding signal (z-score),[4],-0.018
same,glycan array binding signal (z-score),[5],-0.267
same,glycan array binding signal (z-score),[6],-0.228
same,glycan array binding signal (z-score),[7],-0.219
same,glycan array binding signal (z-score),[8],-0.327
same,glycan array binding signal (z-score),[9],0.319
same,glycan array binding signal (z-score),[10],0.662
same,glycan array binding signal (z-score),[11],-0.228
same,glycan array binding signal (z-score),[12],-0.32
same,glycan array binding signal (z-score),[13],1.42
same,glycan array binding signal (z-score),Neu5Ac(b2-6)GalNAc,-0.197
same,glycan array binding signal (z-score),[14],-0.232
same,glycan array binding signal (z-score),[15],-0.353
same,glycan array binding signal (z-score),[16],-0.187
same,glycan array binding signal (z-score),[17],-0.207
same,glycan array binding signal (z-score),[18],-0.341
same,glycan array binding signal (z-score),Neu5Gc(a2-3)Gal(b1-4)Glc,-0.094
same,glycan array binding signal (z-score),[19],-0.284
same,glycan array binding signal (z-score),[20],0.187
same,glycan array binding signal (z-score),[21],-0.212
same,glycan array binding signal (z-score),[22],-0.286
same,glycan array binding signal (z-score),Neu5Gc(a2-6)GalNAc,-0.152
same,glycan array binding signal (z-score),[23],-0.304
same,glycan array binding signal (z-score),[24],-0.293
same,glycan array binding signal (z-score),[25],-0.24
same,glycan array binding signal (z-score),[26],-0.264
same,glycan array binding signal (z-score),[27],-0.039

# Source: the supplement of paper PMC8728848
